Assay: soluble fraction after stress (log2 fold change); higher = more stays soluble; pooled small domains, quantitative proteomics
Details: stress: 50 degC
Method in brief: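 Custom libraries of small protein domains were pooled and measured in a high-throughput format, with quantitative proteomics as the read-out. Each library was stressed at 50°C. The value is the log2 fold change in the amount of each protein that stays soluble after stress, used as a measure of aggregation propensity; higher values mean more of the protein stays soluble.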

“HMAAVLKQGSQGDSVKTVQQKLIRWGYLKGSADGIFGAKTKAAVIAFQKKNGLTADGIIGTRTAQALGISL” and “HMALDYYGVLGVNQDATNREIKSAYRKLARELHPDVNPSEEAAEKFKDVTTAYEVLSDPEKRRIVDMGGDP” are within 0.2 log units of each other in “soluble fraction (log2)” value: -0.126 for the first, -0.00512 for the second.

“HMATGTVKWFNSTKGYGFIAPDDGGKDIFVHISAVERAGLTGLQDNQKIDFEMQSGRDGRASASDLKL” and “HMGGYEVQSGDTLWDLAVRFYGSGAKASAIYEANRDVIEEEAKKRGKGSSSSGYWIFPGTKLAI” are within 0.2 log units of each other in “soluble fraction (log2)” value: -0.08 for the first, -0.202 for the second.

“HMLFDTARAYTDSEVKLGEAFDGIRTEVYIATKTAAQNAEDFWKDLHTSLTNLRTDYIDLYQFH” and “HMNNLYETLGVERTASQNEIKKAYRVLARKYHPDANPDDAVAEQKFKEVAMAYEILSDDQKREEYDRFGS” are within 0.2 log units of each other in “soluble fraction (log2)” value: 0.0619 for the first, 0.184 for the second.

Compared with “HMRADRLISLVLLLQTRGRMTARELADELEVTERTIYRDVIALSSAGIPLYTDRGPGGGIALLDS”, “HMSENDYAILGVKESDSNEEIKKAFRRLAIENHPDKIEHLGETARKKAELNFSKINEAYQRIKKQRG” is higher in “soluble fraction (log2)” value: -1.68 for the first, 0.0584 for the second.

For “HMSGKWALLVLFTLNKSNGTPVRFKQLERDIPDISQKMLTSVLRSLESDGLVSRKAYAEIPPRVEYSLT”, the “soluble fraction (log2)” value was -1.29.
